# Assay results reported in the antibiotic and cytotoxicity screens of Wong et al. (2023).
# Some of the results follow.
# Tests used:
# HSkMC = human skeletal muscle cells; assay: cytotoxicity call (relative viability < 0.9); conditions: 10 µM
# S. aureus RN4220 = assay: growth inhibition call (relative growth <= 0.2); conditions: 50 µM
Compound,cytotoxicity call (HSkMC),growth inhibition call (S. aureus RN4220)
NC(=O)N/N=C/c1ccc([N+](=O)[O-])o1,inactive,active
C[C@@H]1CN([C@H](C)CO)C(=O)c2cc(NC(=O)Cc3cn(C)c4ccccc34)ccc2O[C@H]1CN(C)Cc1ccc(-c2ccccc2)cc1,inactive,inactive
Cc1ccc(S(=O)(=O)Nc2ccc3c(c2)CC(=O)N([C@@H](C)CO)C[C@H](C)[C@@H](CN(C)Cc2ccc(-c4ccccc4)cc2)O3)cc1,active,inactive
CN(C)CCOC(=O)COc1ccc(Cl)cc1.Cl,inactive,inactive
Cc1noc(C)c1S(=O)(=O)N(C)C[C@@H]1OCCCC[C@@H](C)Oc2ccc(NC(=O)Nc3ccc(C(F)(F)F)cc3)cc2C(=O)N([C@H](C)CO)C[C@H]1C,inactive,inactive
CC(C)[C@H]1CC[C@@H](C)C[C@@H]1NC(=O)c1cccc2ccccc12,inactive,inactive
CC(C)C[C@H](N)C(=O)O,inactive,inactive
O=c1cc(Cl)[nH]c(=O)[nH]1,inactive,inactive
C[C@H]1CN([C@@H](C)CO)C(=O)c2cc(NS(=O)(=O)c3ccccc3)ccc2O[C@H]1CN(C)Cc1ccc(Oc2ccccc2)cc1,inactive,inactive
COc1cccc(OC)c1C(=O)NN,inactive,inactive
Nc1nc(=O)c2ncn(CCC(CO)CO)c2[nH]1,inactive,inactive
O=C(C[C@@H]1CC[C@H]2[C@@H](COC[C@@H](O)CN2S(=O)(=O)c2ccc(F)cc2)O1)NCc1ccc(Cl)c(Cl)c1,inactive,inactive
CNC[C@H]1Oc2cc(C#CC(C)(C)O)ccc2S(=O)(=O)N([C@H](C)CO)C[C@H]1C,inactive,inactive
